Experimental data reported in the supplement of paper PMC3334620.
The full ranking holds about 33,000 sequences; the median of “E-score (-0.5 to 0.5)” is about -0.012, and the highest 2% start at about 0.27. This is one part of the list.

target: T1, Vhr1 (UniProt P40522); assay: PBM E-score (8-mer binding enrichment) (E-score (-0.5 to 0.5)); higher = stronger / more preferred TF binding; most listed sequences are background and not binding sites; settings: protein concentration: 200 nM; construct: GST-full length
T1 sequence: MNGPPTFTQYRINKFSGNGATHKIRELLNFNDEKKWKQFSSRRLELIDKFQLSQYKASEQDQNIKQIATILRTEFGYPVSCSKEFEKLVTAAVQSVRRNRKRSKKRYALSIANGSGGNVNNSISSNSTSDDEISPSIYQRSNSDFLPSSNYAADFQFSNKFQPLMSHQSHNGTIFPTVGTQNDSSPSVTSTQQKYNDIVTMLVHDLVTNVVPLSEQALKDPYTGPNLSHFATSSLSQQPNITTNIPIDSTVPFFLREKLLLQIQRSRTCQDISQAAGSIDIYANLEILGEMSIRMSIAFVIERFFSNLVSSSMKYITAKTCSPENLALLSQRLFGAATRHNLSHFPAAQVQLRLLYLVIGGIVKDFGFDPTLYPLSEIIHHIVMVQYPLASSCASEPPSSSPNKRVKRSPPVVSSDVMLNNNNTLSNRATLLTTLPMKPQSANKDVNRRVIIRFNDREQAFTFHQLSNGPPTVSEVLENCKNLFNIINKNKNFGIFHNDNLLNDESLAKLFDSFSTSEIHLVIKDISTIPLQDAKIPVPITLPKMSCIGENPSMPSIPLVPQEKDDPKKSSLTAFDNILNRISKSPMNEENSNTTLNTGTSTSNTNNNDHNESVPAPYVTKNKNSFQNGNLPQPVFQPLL
Outline: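 Masliner-normalised scans of fluorescent anti-GST signal were the basis for scoring. That signal came from GST-tagged yeast transcription factors applied at about 100-200 nM to double-stranded universal all-10-mer Agilent arrays on fresh or once-stripped slides. Each ungapped eight-base word, pooled with its reverse complement, received an E-score from the Universal PBM Analysis Suite.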

Sequence | PBM E-score
ACGGAGGG | -0.0562
CCTGTACA | -0.232
AGTTACCA | 0.00368
AGCATGGC | -0.0213
CATGTGCA | -0.19
CGCAAGAC | -0.214
GCGGGATA | 0.0896
AGGAGACG | -0.176
CCACACAG | 0.165
ATACATAA | 0.135
GCCATATA | -0.0482
TAAGTCCA | -0.214
ACACAAGT | -0.0792
ATTCTCTA | -0.11
CCAGATGC | 0.121
GACGCCCC | -0.136
TCCTCCGA | -0.056
ATATCAGA | -0.159
GTAGATAA | 0.0601
CGTGTTTC | -0.143
TCGCCGAA | -0.0481
ATAACCAG | 0.116

Sequence | PBM E-score
ATCGCCAG | 0.0655
AAGCGTAG | -0.0898
AATGAGAT | 0.115
CCAAAGAC | -0.186
CAAGTCGA | -0.062
AGCCCGAA | -0.151
CGCACGAA | 0.0799
GACTTCAA | 0.00793
ACAGCGTG | 0.0256
ACTTGGTG | 0.0982
CCGGTGTC | 0.105
AGAGAACT | -0.222
AAGCTATG | -0.0787
TCGCTCCA | -0.0939
GCACAACA | -0.0373
ACCACTGC | 0.00472
AGGACGCA | 0.201
CCCCGCGG | 0.0864
GGTCGCTA | -0.0588
GGTTTATA | 0.12
GATCGTCA | -0.0592
AAGAGCAG | -0.104

Sequence | PBM E-score
ACTCGGAT | 0.186
ACCTATAT | 0.159
TACGACCA | 0.0823
AGAGCACA | 0.216
CCGGTAGA | -0.0664
AATCGCTC | -0.0865
AAGTTATG | 0.122
ATCTACGA | -0.0284
ACTGGGAA | 0.193
GAAGTATC | -0.0172
ACGTGAGT | 0.197
CAACCAGG | 0.00678
CAATTAGA | 0.142
CACGTGAC | 0.108
CCATCGGC | -0.116
CTCTTCAC | 0.0873
AATAATCA | 0.203
GCTTTTGA | -0.222
CATCATGG | 0.152
AGCTCCAG | -0.115
CCGCGATA | 0.0454
CATTTTAA | -0.137

Sequence | PBM E-score
GCACGAGA | -0.0543
GCCGGTTA | 0.0586
CGAATGCG | 0.00337
ACTGTCCC | -0.0218
AAGAGGGC | -0.268
TAGTCGCA | 0.309
CAGGGCCA | -0.226
CTGATTTC | -0.00794
AACGCTAT | -0.171
ACGATCCT | 0.00746
CTCAGCCA | 0.106
TAATAAAA | -0.0705
GCCAAAAC | -0.215
CACACCCG | 0.181
AGGTCAAC | -0.15
CCTGGCCA | -0.0646
ATCGTCGA | -0.0285
GCTAGAAC | -0.112
CGTCCGCC | -0.0676
GATGCGGA | 0.117
